Experimental data published in publication PMC6082832, “Effects of polymorphic variation on the thermostability of heterogenous populations of CYP3A4 and CYP2C9 enzymes in solution” (Scientific Reports, 2018).

Biological target: the molecule itself
Assay: SEC; BioSep-SEC-S3000 column (5-700 kDa), room temperature, 0.5 ml/min, 100 mM potassium phosphate pH 7.4; 20 µl sample at ~2 mg/ml total protein; monitored at 410 nm; sizes estimated from the Bio-Rad gel filtration standard calibration curve

B1: CYP3A4 wild-type, N-terminally truncated, His-tagged recombinant protein (enzyme, human, UniProt P08684 25-503, looked up)
chain: YGTHSHGLFKKLGIPGPTPLPFLGNILSYHKGFCMFDMECHKKYGKVWGFYDGQQPVLAITDPDMIKTVLVKECYSVFTNRRPFGPVGFMKSAISIAEDEEWKRLRSLLSPTFTSGKLKEMVPIIAQYGDVLVRNLRREAETGKPVTLKDVFGAYSMDVITSTSFGVNIDSLNNPQDPFVENTKKLLRFDFLDPFFLSITVFPFLIPILEVLNICVFPREVTNFLRKSVKRMKESRLEDTQKHRVDFLQLMIDSQNSKETESHKALSDLELVAQSIIFIFAGYETTSSVLSFIMYELATHPDVQQKLQEEIDAVLPNKAPPTYDTVLQMEYLDMVVNETLRLFPIAMRLERVCKKDVEINGMFIPKGVVVMIPSYALHRDPKYWTEPEKFLPERFSKKNKDNIDPYIYTPFGSGPRNCIGMRFALMNMKLALIRVLQNFSFKPCKETQIPLKLSLGGLLQPEKPVVLKVESRDGTVSGA
modifications: biotin on the BCCP tag (50 µM biotin added to facilitate biotinylation)
notes: cytochrome P450 3A4, human; Vector pBJW102.2 (pQE-80L with BCCP and a glycine-serine linker 3' to the His-6 tag); also called CYP3A4 WT; source: E. coli DH5α, purified (Protino Ni-TED His-tag purification)
stoichiometry N: ~9 subunits
